Measured values as given in PubChem BioAssay AID1745853 (National Center for Advancing Translational Sciences (NCATS), 2022).
This is one part of the list. Further columns of the screen follow, without active or inactive calls.

Tests used:
Assay in all cases: Primary Screen for Target Class Profiling of Small Molecule Inhibitors of Methyltransferases
[1] = target: Guanidinoacetate N-methyltransferase (Homo sapiens) (UniProt Q14353); conditions: purified enzyme, MTase-Glo SAH luminescence; measured here: GAMT inhibition; at 40 µM; stronger effect = lower value
In short: (§1)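 Each enzyme was assayed with SAM and its substrate. SAH formation detected by MTase-Glo luminescence; single-point 40 uM screen[…].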

[2] = target: Nicotinamide N-methyltransferase (Homo sapiens) (UniProt P40261); conditions: purified enzyme, MTase-Glo SAH luminescence; measured here: NNMT inhibition; at 40 µM; stronger effect = lower value
In short: as §1

[3] = target: Phenylethanolamine N-methyltransferase (Homo sapiens) (UniProt P11086); conditions: purified enzyme, MTase-Glo SAH luminescence; measured here: PNMT inhibition; at 40 µM; stronger effect = lower value
In short: as §1

[4] = target: Glycine N-methyltransferase (Homo sapiens) (UniProt Q14749); conditions: purified enzyme, MTase-Glo SAH luminescence; measured here: GNMT inhibition; at 40 µM; stronger effect = lower value
In short: as §1

[5] = target: Histamine N-methyltransferase (Homo sapiens) (UniProt P50135); conditions: purified enzyme, MTase-Glo SAH luminescence; measured here: HNMT inhibition; at 40 µM; stronger effect = lower value
In short: as §1
% is scaled to controls: 0 for no effect and ±100 for the full control effect.

| Structure (SMILES) | activity change, negative = inhibition [1] [%] | activity change, negative = inhibition [2] [%] | activity change, negative = inhibition [3] [%] | activity change, negative = inhibition [4] [%] | activity change, negative = inhibition [5] [%] |
| --- | --- | --- | --- | --- | --- |
| O=C(CCc1cc(=O)[nH]o1)N[C@H](C1CCNCC1)C1CC(O)C1 (stereo partly drawn) | 4.75 | -8.93 | -1.71 |  |  |
| O=S(=O)(c1cnc[nH]1)N1CCC(c2nc(CCOCC3CC3)no2)C1 (stereo not drawn) | 1.94 | -2.84 | 4.02 | -0.806 | 1.88 |
| COc1ccc(CNC(=O)Cn2ccc3cc(S(=O)(=O)N4CCCC4)ccc32)cc1OC | 5.75 | -13.4 | -0.895 | -4.95 | 1.53 |
| CC1CCC(NC(=O)C2c3cccn3CC(=O)N2CCC2=CCCCC2)CC1 (stereo not drawn) | 0 | 1.42 | -3.46 | -1.16 | 0.434 |
| Fc1ccc(-c2nnn3c2nc(N2CCCC2)c2ccccc23)cc1 | 0 | 10.7 | 1.13 | 2.52 | 9.19 |
| COc1cc(OC)nc(N2C[C@H]3OC(=O)N(Cc4ccccc4OC)[C@H]3C2)n1 | -1.8 | -4.18 | 0.936 | -0.939 | 0.982 |
| CCC(=O)OCC(=O)[C@@]1(OC(=O)CC)[C@@H](C)C[C@H]2[C@@H]3CCC4=CC(=O)C=C[C@]4(C)[C@@]3(F)[C@@H](O)C[C@@]21C | 7.69 | -16.1 | -2.85 | 4.19 | 4.28 |
| CC1=C2C3OC(=O)C(C)C3(O)CCC2(C)CCC1O (stereo not drawn) | 5.34 | -7.32 | 3.4 | 6.92 | 10.2 |
| Cc1cc(-c2nc3ncccc3o2)ccc1NC(=O)COc1ccc(C(C)(C)C)cc1 | -8.05 | -21.2 | -1.35 |  |  |
| CCOc1ccc(N2C(=O)CSc3c(c4ccccc4n3C)C2C(=O)NCCCOC(C)C)cc1 (stereo not drawn) | 0 | 1.29 | 6.29 | 7.43 | 0.756 |
| CNS(=O)(=O)CC1CCC(N(C)c2ncnc3[nH]ccc23)CC1 (stereo not drawn) | -7.21 | -38.3 | -59.3 | -2.9 | 4.85 |
| COCCCNC(=O)c1ccc(Cn2c(=O)c3ccccc3n(Cc3ccc(C(C)C)cc3)c2=O)cc1 | -8.04 | -22.7 | 1.71 | -6.24 | 11.1 |
| COc1ccc(OC)c2c1cc1n2CC(C)(C(=O)NC2CCCC2)N(Cc2ccccc2)C1=O (stereo not drawn) | 0 | 9.08 | 3.52 | 7.34 | 8.56 |
| CC1CCC2(C)C(CC(O)C(O)C23CO3)C1(C)CCC1=CC(O)OC1=O (stereo not drawn) | -9.27 | -21 | -5.56 | -8.13 | 6.58 |
| Cc1ccc(CNC(=O)CSc2nnc3n(Cc4ccc(C)cc4)c(=O)c4ccccc4n23)cc1 | 3.02 | 2.88 | 1.03 | 1.33 | 9.46 |
| O=C(c1noc2c1CCCC2)N1CCOc2ccc(CN3CCN(c4ccccn4)CC3)cc2C1 | 1.94 | 2.25 | 8.79 | -0.551 | 0.538 |
| COc1ccccc1C(=O)N1CC(N(C)c2ccccc2C)C1 | -4.19 | -13.2 | -2.4 | -1.19 | -1.09 |
| CC(=O)N(C)C1(c2ccccc2)CCN(CCC[C@]2(c3ccc(Cl)c(Cl)c3)CCCN(C(=O)c3ccccc3)C2)CC1 | -11 | -78.6 | -16.9 | -6.28 | -28.4 |
| O=C([C@@H]1CCCN(c2ccc3[nH]c(C4(n5cc(Cl)cn5)CC4)nc3n2)C1)N1CCCC1 | -11.1 | -30.1 | -19.9 | -8.57 | -63.6 |
| CC(=O)NC[C@@H]1C=C(C)[C@H](Cc2nnc(-c3cncn3C)o2)C[C@H]1C(C)C | -6.95 | -11.8 | -31.5 | -6.4 | -5.23 |
| CC(C)NC(=O)c1ccc2c(=O)n(Cc3ccccc3)c3n[nH]c(=O)n3c2c1 | 0 | -18.1 | -13.8 | -11.5 | 0.41 |

| Structure (SMILES) | activity change, negative = inhibition [1] [%] | activity change, negative = inhibition [2] [%] | activity change, negative = inhibition [3] [%] | activity change, negative = inhibition [4] [%] | activity change, negative = inhibition [5] [%] |
| --- | --- | --- | --- | --- | --- |
| COc1ccc(-c2cc(C(=O)NCc3cccnc3)c3c(c2)N(C)CCO3)cc1OC | -20.2 | -26.5 | -18.2 | -37.2 | -60 |
| O=C(Nc1cccc([N+](=O)[O-])c1)c1cccc(S(=O)(=O)N2CCCCCC2)c1 | 2.42 | -23.8 | -11.4 | -2.83 | 2.12 |
| CC1=NS(=O)(=O)N(CCc2ccccc2)C=C1C(=O)O | 1.67 | 2.94 | 13.6 | 1.24 | 2.3 |
| Cc1ccc(C)c(N2CCN(CCCNC(=O)CCc3nnc4n(C)c(=O)c5ccccc5n34)CC2)c1 | 2.41 | -18.7 | -5.76 | -4.68 | -2.14 |
| CCOC(=O)c1cc2n(n1)CC(C)(C(=O)NC1CCCCC1)N(c1ccccc1CC)C2=O (stereo not drawn) | 0 | 4.55 | 5.74 | 6.08 | -6.39 |
| CC(NCCCc1cccc(C(F)(F)F)c1)c1cccc2ccccc12 (stereo not drawn) |  |  |  | 1.35 | -0.187 |
| COc1ccc(-c2n[nH]n3c2nc(=O)c2ccc(C(=O)NC4CCCCC4)cc23)cc1 | 0 | 5.61 | 1.53 | 1.51 | 0.166 |
| C[N+](C)(C)CCOC(N)=O | 11.3 | -4.89 | -2.62 | 12.1 | 12.6 |
| CC(C)c1cc(CNc2nc(Nc3cc(C4CC4)[nH]n3)cc(N3CCN(C)CC3)n2)on1 | 2.06 | -23.5 | 2.57 | -67.9 | -61.2 |
| CCCCc1nn(CC(=O)N2CCCC2c2nc(C3CC3)no2)c(=O)n1CC (stereo not drawn) | -6.28 | -10.7 | -12 | -6 | -2.76 |
| OC[C@H]1O[C@H](n2cnc3c(N[C@H]4CCC[C@@H]4O)ncnc32)[C@H](O)[C@@H]1O | 19.7 | -0.268 | 7.94 | 10.9 | 10.4 |
| Cc1cccn2c(CC(=O)N3CCn4nc(CO)cc4C3)cnc12 | -10.9 | -8.75 | 3.71 | -8.81 | -12.8 |
| CC(C)Cn1c(=O)c2ccc(C(=O)NC(C)C)cc2n2c(SCc3ccc(F)cc3)nnc12 | -10.7 | -11.4 | -6.11 | -3.17 | 5.23 |
| CC(=O)N(O)CCCCCN1C(=O)CCC1=O | 7.36 | -14.7 | 6.04 | 5.28 | 11 |
| CC(C)c1cc(C(C)C)c(CC(=O)NS(=O)(=O)Oc2c(C(C)C)cccc2C(C)C)c(C(C)C)c1 | -33.4 | -46.9 | -16.2 | -18.1 | -0.604 |
| CC(C)(C)NC[C@H](O)COc1cccc2c1CCCC2=O | 7.19 | -8.77 | 4.6 |  |  |
| CCc1ccccc1N1C(=O)c2cc(-c3ccc(OC)cc3)nn2CC1(C)C(=O)NCc1ccccc1OC (stereo not drawn) | 0 | 7.25 | 0.082 | 3.45 | 5.31 |
| Cc1cc2[nH]c(=O)[nH]c2cc1S(=O)(=O)Nc1cccc(Cl)c1 | 6.15 | -12.8 | -5 | -4.03 | -1.69 |
| CCCCCCCCCCCCCCCc1cccc(O)c1C(=O)O |  | -14.8 | 27.4 | -22.3 | -1.13 |
| Cc1nc(C)c(C(=O)Nc2nn(Cc3ccccc3)c3cccc(OC(C)C)c23)o1 | -17.3 | -31.6 | -15.7 | -21.2 | -17.9 |
| O=C(NNc1nc2cc(F)ccc2n2cccc12)c1cnccn1 | 6.31 | -15.3 | 4.07 | 2.69 | 9.38 |

| Structure (SMILES) | activity change, negative = inhibition [1] [%] | activity change, negative = inhibition [2] [%] | activity change, negative = inhibition [3] [%] | activity change, negative = inhibition [4] [%] | activity change, negative = inhibition [5] [%] |
| --- | --- | --- | --- | --- | --- |
| CC(C)Oc1ccc(CNC(=O)c2cc3n(n2)CC(C)(C(=O)NC2CCCC2)N(C)C3=O)cc1 (stereo not drawn) | 3.45 | -2.01 | -6.34 | -0.901 | 3.19 |
| CN1CCN(C(c2ccc(Cl)cc2Cl)c2sc3nc(-c4ccco4)nn3c2O)CC1 (stereo not drawn) | 5.83 | -11.5 | 1.05 |  |  |
| CC1(C)CN(C(=O)c2ccc(Oc3ccccc3)o2)CC1(C)O (stereo not drawn) | -3.05 | -8.42 | -12.2 | -6.04 | -1.11 |
| CC(NC(=O)CC(=O)O)c1nc2ccccc2c(=O)[nH]1 (stereo not drawn) | 7.18 | -2.93 | 6.57 | 2.48 | 10.1 |
| O=C(Nc1cccc(-c2nnc3n2CCCC3)c1)c1ccccn1 | -6 | -9.34 | -26.5 | -7.2 | -7.83 |
| CNc1nc(Nc2ccc(C(=O)N3CCOCC3)cc2OC)ncc1Cl | -5.16 | -16.6 | -10.1 | -4.91 | 4.38 |
| CCOCCn1nc(CC)c2nc(N3CCC(C(=O)O)CC3)nc(Nc3cc(C)ccn3)c21 | -16 | -33.6 | -16 | -28.2 | -12.7 |
| CC(=O)c1ccc(Nc2nc3c(S(=O)(=O)c4ccc(Br)cc4)nnn3c3ccccc23)cc1 | 0 | -5.47 | -3.36 | -7.06 | -0.004 |
| CC1(C(=O)NC2CCCCC2)Cn2c(cc3sccc32)C(=O)N1CCc1ccc(Cl)cc1 (stereo not drawn) | 0.986 | 1.13 | -1.7 | -1.28 | 5.15 |
| CCCn1c(=O)c2ccccc2n2c(SCC(=O)Nc3ccc4c(c3)OCCO4)nnc12 | 2.99 | -7.89 | -2.67 | -12.9 | 1.93 |
| Cc1ccsc1CN1CCCOCCNC(=O)[C@@H]2CCCC[C@@H]21 | 1.22 | -4.37 | 4.73 | -0.122 | 2.24 |
| COc1ccc(CNc2nc3c(-c4ccc(C)cc4)nnn3c3ccccc23)cc1 | 2.68 | 3.23 | -3.31 | -2.6 | 1.82 |
| Cc1cc(CO)c(O)c(C(=O)CC2CC(=O)NC(=O)C2)c1 | 4.16 | -9.58 | 5.44 | 3.96 | 6.84 |
| CC1CCN(S(=O)(=O)c2ccc3c(ccn3CCC(=O)NCCCN3CCOCC3)c2)CC1 | 4.59 | 7.06 | 0.789 | 4.21 | -1.22 |
| CN(C)CCNC(=O)c1cc2n(n1)CC(C)(C(=O)NC1CCCCC1)N(C)C2=O (stereo not drawn) | 0 | 5.73 | 4.82 | 6.11 | 8.89 |
| CN(Cc1ccc(Oc2ncccn2)cc1)CC1CCN(CCc2ccc(F)cc2)CC1 | -7.18 | -7.25 | -10.9 | -3.27 | -7.92 |
| CCOc1ccccc1CN1CCC2(Cc3ccccc3CNC2=O)C1 (stereo not drawn) | -6.55 | -13.7 | 0.478 | -8.12 | -17.2 |
| Cc1nc(C2CC(O)C2)cc(N2CCC(c3nncn3C)CC2)n1 (stereo not drawn) | -2.66 | -0.524 | 1.4 | 0.018 | -2.46 |
| Cc1[nH]c2ccccc2c1C(=O)Cn1nc2n(Cc3ccc(F)cc3)c(=O)c3ccccc3n2c1=O | 1.35 | -0.249 | 8.37 | 8.93 | 2.42 |
| CCN1C(=O)C=CC1=O | 9.22 | -6.21 | -1.35 | 3.97 | 8.12 |
| CCCCN1C(=O)c2cc(C(=O)Nc3cc(OC)ccc3OC)nn2CC1(C)C(=O)NC1CCCC1 (stereo not drawn) | 0 | -1.24 | 1.39 | 1.7 | 2.88 |
